Assay results published in the supplement of paper PMC10126150.
Values marked as one replicate rest on one cluster of the flow cell; about a third of the high ones do not repeat.

Test system: ATP
Assay: switch fluorescence ratio, 500 uM ATP over buffer (Cy3 cluster intensity, sum of 5 cycles each) (fold (ratio)); higher = stronger signal-on switching upon ATP binding; sequences stand for … in TCGTCGGCAGCGTCAGATGTGTATAAGAGACAGTTTTTTTTTTTTTTTTTTTTTTTTT…TC
Conditions: aptamer strand: ATP DNA aptamer (quencher-CACCTGGGGGAGTATTGCGGAGGAAGG + anchor), 100 nM annealed; ATP concentration: 500 uM; one replicate
Method in brief: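 Clusters carrying Cy3-labelled switching strands on a modified Illumina MiSeq flow-cell were annealed to 100 nM quencher-labelled ATP aptamer and imaged in selection buffer. They were imaged again after 15 min with 500 uM ATP at 22 °C, over five buffer/ATP cycles with NaOH stripping and re-annealing in between. For each cluster, the fluorescence ratio is the summed Cy3 intensity of the target cycles divided by that of the buffer cycles, averaged per switch-domain sequence. Clusters outside 100-1000 RFU were left out.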
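Further: ATP exposure 15 min at 22 °C before imaging.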

Sequence | switch fluorescence ratio
ATGGCATAGC | 0.989
TCGTATGGTC | 1.38
GTGAGAGGG | 1
TGCTCAGGTG | 2.7
TGTGACCAAT | 1
TTGCGAAGGC | 0.995
TCGCCACGTT | 0.996
GGCCACTAAT | 0.996
GGGAAGTAG | 0.988
TCCACGCCGG | 1.05
TTTCTGTGGT | 0.982
GCCTTAGGCG | 0.997
TGACGAATGT | 1
ATACATTTAG | 1.02
GGAACTGCAA | 2.15
TCCGTTGAGA | 0.993
TATCCTGCAC | 1.23
CTGTCGGGGG | 0.995
TTCGGCTATT | 0.999
ACAAGGGCGA | 0.992
TATTCTCGCA | 1.11
CGCGGCCGGG | 0.996
GGAGGCTTTG | 1
GGGGCGTTAA | 1.02
GTAACCGGAG | 1.04

Sequence | switch fluorescence ratio
AAGATATTAG | 0.983
CGGATGGCTC | 1.04
ATAGACATTG | 0.984
AATCCCGACC | 1.29
CTGGATTTAG | 1.05
AGTATGCTC | 1
GTAGTCGAGC | 0.991
GAAGTCTTCA | 1.04
TAGCCCCTTT | 0.959
TAAAGTGCT | 0.985
TAAGGACAAG | 1.02
AAAGACAGG | 0.998
TTCGCGGGAG | 0.978
TGGTCTTGCG | 0.986
AAAAATTCTC | 1.01
AAGTCGGCCG | 1
AAAACACCCG | 0.985
CGCTTCTTAG | 1.02
CGAAACGAGA | 0.994
ATTAAATACA | 1.03
AGTTACATGG | 1.04
ATCTTGGTAG | 0.987
ATACTAATAT | 1.03
TGACCGGTTG | 0.989
CATCGGTCTC | 1.01

Sequence | switch fluorescence ratio
ACTATGGCGT | 0.996
CGTGACAGTG | 1.02
TGTCAAGGG | 0.986
GCTGGGACGG | 0.988
TGCGTTTTCC | 1.01
TCTAATCGAT | 0.979
GCAGGTTATT | 1
CGATTTTAAT | 0.988
TAGTTGGGAA | 0.989
TCGAAACTAT | 3.28
AACTTGCATT | 0.987
TATGCCTATG | 0.98
AACGAAGAGT | 0.95
TTGGCAGAAT | 1.03
AAAAGTCATT | 0.957
TGCTAGTTTC | 1.01
TTATCTAATT | 0.976
AATTGGACGC | 1
GATTTAGTAG | 1.03
ACTCATTCTT | 1.03
AGTGCGCGCA | 0.945
GTCAGCTACG | 0.989
GTTGTTAAAG | 0.995
TGGACCGGGT | 0.974
GGCTAGGATG | 0.97

Sequence | switch fluorescence ratio
GTCCGCGTGT | 1.12
AGCATCAGTG | 1.04
CTTATTAGTT | 0.951
GGGTCAACGG | 0.992
CTATGGGGTC | 1.02
TATAATTATA | 1.01
GGAACTCCAA | 0.997
TTGGGTTACC | 0.969
ACCCATAGAA | 1.01
CTTTCATGCC | 1.02
TGGGATCTTG | 0.995
ACGTCTTATC | 1.05
CTCAGGGGCA | 1.04
CGGGTTAAAT | 1.04
CTCTGCTGT | 1.46
TCTGACGGGG | 1.04
ACGGGTGCAT | 1.03
CTCAAACTGT | 0.89
ATTTTCGCTA | 1.05
GTAATCCAGT | 1.02
TGATGCGCGT | 0.991
AAAAACTTTA | 0.996
CGGTCTACT | 1.01
TCTACATATA | 1.03
ACTCGGGC | 1.02

Sequence | switch fluorescence ratio
ATATCCTTCG | 1.58
GGCATGAGGA | 1.01
GGGGCCTTGA | 1.03
GTCTAAAAAA | 1.1
CAGTTTCGCT | 1.02
TTCTTAATGT | 0.948
AAAACGGCTG | 1.11
TATAGCGCAC | 1.13
TTAACTTTTC | 1.05
GTTGTTCGTG | 0.974
TTACGCCTC | 1.07
TAAGTGACAT | 0.995
GAAGAGCCCG | 1.02
TATTCTAACT | 0.97
GATATTTGTT | 1.01
GCACTTCGGA | 1.05
ATGAGGCAGA | 1.06
GGGTGACACA | 0.89
TGAGCGCTG | 0.996
GACACTGGAG | 1.04
AATCGCTTGC | 1.08
TGCGGACCTA | 1.02
AATTCGTCCG | 1.11
TGGTTTCAAT | 1.05
TCGCGGGGTT | 1.05

Sequence | switch fluorescence ratio
CAGATGTATA | 1.05
GCGTCTTTTT | 0.937
AGTGAGTGAT | 1
AGTGTGTTTG | 0.99
AGAAGCTTAG | 0.981
GCCGCGAGCT | 1.04
CTTACTTT | 1.03
CGGGTTGATG | 0.98
CTTCGCTCAT | 1.93
GACTTAGGCG | 1.03
CATTCTACTC | 1.1
ACGGGGGCTA | 1.02
ACGAGAGGGA | 1.08
ACGGTCTAAG | 1
ATATCACACG | 1.03
ATAAGCAAGG | 1.06
ATACGTTGTC | 0.984
GGCATTCGGG | 1.03
CGCTGGGTGA | 0.999
CCGTACTGCA | 2.14
CTCACCGGCA | 1.06
GAAAAACGGC | 1.13
ATGGAGATTC | 0.938
CCCTGCGTCG | 0.994
CTATTATAAT | 0.986

Sequence | switch fluorescence ratio
TAACGATCCT | 1.05
CACATCACCG | 1.44
TGTATAGCCG | 0.797
GCGCGTGAGA | 0.95
CTGGAATTAA | 1.01
AAAATGTATT | 0.992
TGGGGATAA | 1.01
GACTCATAAA | 1.03
CACAAAGTGT | 1.01
AGGATTACTA | 0.993
ATTCCGGTGT | 1.02
TTAAGTAGCC | 1.05
AGGGGCAAGC | 1.06
GTGTTAGTCT | 1.06
AATCAGTT | 1.01
GTGGCCTTAC | 1.16
GTAAAACAAA | 1.01
CCCAGGTGGT | 1.03
GCGGGAGACG | 0.978
CCATTTCAGC | 1.02
GCGAATTCTC | 1.09
GTCACTTATG | 1.01
CCAGTCCTTA | 0.979
TTGATCATAG | 1
AAAACGGGGC | 1.05

Sequence | switch fluorescence ratio
ACTCCCGGTG | 4.15
AATTGGAGAT | 1.03
TGCTCAATCG | 1.02
CGTTGTCGTC | 1.03
CAAGAGGATA | 0.966
AGTTGAACGG | 1.05
ATTCTGTGAA | 1.02
TGGAAGGCTA | 1
TTGGACCTTT | 1.18
CTCCATGATG | 0.989
CAGGTAATGC | 1.52
ACCCCATAGT | 1.09
ATCCTCGTC | 1.09
CAGGACTGTA | 1.05
TTTTCACCCA | 1.05
CTGTGAATCC | 1.05
TTCAAGGTGG | 0.976
TGCTATTGGG | 0.967
ACTTCCGTAA | 1.54
CACAGATTCC | 1.03
GAAGGGGACA | 1.47
AGAGGCGCG | 1.07
ACGAGCCTGG | 1.7
GGGATCTAAG | 1
AGTTTCCTTG | 0.991
